For assay [1], the target named is GST-ITGB4 full-length (Full: 1-1822) (UniProt P16144). As to the kind of experiment: co-IP; ECA109 cells co-transfected with GST-ITGB4 and Flag-NEDD4L fragments; GST antibody precipitates ITGB4, NEDD4L fragments detected with Flag antibody by Western blot. Background: A western blot detects proteins with antibodies after separation by electrophoresis.
Assay [2] has as its target Flag-NEDD4L full-length (Full: 1-975) (UniProt Q96PU5). As to the kind of experiment: co-IP; ECA109 cells co-transfected with Flag-NEDD4L and GST-ITGB4 fragments; Flag antibody precipitates NEDD4L, ITGB4 fragments detected with GST antibody by Western blot.

The chains behind the UniProt entries cited, without tags or fusion partners. Where a name states a change or a piece, a line headed by the entry shows the natural chain unless it says otherwise.
UniProt Q96PU5: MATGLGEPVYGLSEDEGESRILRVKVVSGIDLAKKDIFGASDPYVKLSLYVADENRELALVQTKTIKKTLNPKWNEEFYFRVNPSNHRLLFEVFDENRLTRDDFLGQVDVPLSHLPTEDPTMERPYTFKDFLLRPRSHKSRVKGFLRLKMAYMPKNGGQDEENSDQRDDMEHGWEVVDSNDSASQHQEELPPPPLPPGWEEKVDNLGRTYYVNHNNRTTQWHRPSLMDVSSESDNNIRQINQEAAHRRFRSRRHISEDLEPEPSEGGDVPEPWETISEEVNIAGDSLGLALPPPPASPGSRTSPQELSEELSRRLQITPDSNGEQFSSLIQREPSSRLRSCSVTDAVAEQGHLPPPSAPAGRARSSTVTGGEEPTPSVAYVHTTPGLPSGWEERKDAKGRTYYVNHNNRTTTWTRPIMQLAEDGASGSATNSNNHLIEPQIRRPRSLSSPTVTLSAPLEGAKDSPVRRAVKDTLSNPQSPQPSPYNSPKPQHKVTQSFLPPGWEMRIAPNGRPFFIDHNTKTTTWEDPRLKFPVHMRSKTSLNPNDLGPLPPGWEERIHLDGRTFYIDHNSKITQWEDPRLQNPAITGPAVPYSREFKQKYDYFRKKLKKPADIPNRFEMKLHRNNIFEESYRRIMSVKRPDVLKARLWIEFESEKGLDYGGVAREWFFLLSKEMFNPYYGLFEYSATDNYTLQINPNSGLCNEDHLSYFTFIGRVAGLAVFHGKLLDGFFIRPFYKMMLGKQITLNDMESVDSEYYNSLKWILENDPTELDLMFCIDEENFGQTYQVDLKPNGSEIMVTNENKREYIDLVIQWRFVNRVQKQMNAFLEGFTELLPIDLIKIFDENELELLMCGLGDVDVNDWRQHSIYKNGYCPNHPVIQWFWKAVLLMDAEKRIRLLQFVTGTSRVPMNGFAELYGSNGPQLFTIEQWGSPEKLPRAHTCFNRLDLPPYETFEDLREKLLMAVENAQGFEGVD

These are yes or no findings as the source states them, for the method shown. Binding seen in cells or lysates may run through a third protein. Some results given as binding are weak or reduced against the parent protein; the word gives no strength. For part of these data: Tags and fused reporters may be left off the sequences shown.

For “Flag-NEDD4L C2 fragment (C2: 4-126) (from UniProt Q96PU5 4-126) (domain or fragment)”, in assay [1], the binding result was “no binding”.

Regarding “Flag-NEDD4L WW fragment (WW: 193-581) (from UniProt Q96PU5 193-581) (domain or fragment)”, the binding entry in assay [1] is reported as “no binding”.

Take “Flag-NEDD4L HECT fragment (HECT: 640-975) (from UniProt Q96PU5 640-975) (domain or fragment)”: the binding result in assay [1] is given as “binds”.

B1: GST-ITGB4 Fnll-3 and Fnll-4 fragment (1426-1822) (domain or fragment, UniProt P16144 1426-1822)
chain: GGSLPRSATPGPPGEHLVNGRMDFAFPGSTNSLHRMTTTSAAAYGTHLSPHVPHRVLSTSSTLTRDYNSLTRSEHSHSTTLPRDYSTLTSVSSHDSRLTAGVPDTPTRLVFSALGPTSLRVSWQEPRCERPLQGYSVEYQLLNGGELHRLNIPNPAQTSVVVEDLLPNHSYVFRVRAQSQEGWGREREGVITIESQVHPQSPLCPLPGSAFTLSTPSAPGPLVFTALSPDSLQLSWERPRRPNGDIVGYLVTCEMAQGGGPATAFRVDGDSPESRLTVPGLSENVPYKFKVQARTTEGFGPEREGIITIESQDGGPFPQLGSRAGLFQHPLQSEYSSITTTHTSATEPFLVDGLTLGAQHLEAGGSLTRHVTQEFVSRTLTTSGTLSTHMDQQFFQT
In the case of B1, in assay [2], the binding result was “no binding”.

B2: GST-ITGB4 Galx-β fragment (Galx-β: 740-1129) (domain or fragment, UniProt P16144 740-1129)
chain: KACLALLPCCNRGHMVGFKEDHYMLRENLMASDHLDTPMLRSGNLKGRDVVRWKVTNNMQRPGFATHAASINPTELVPYGLSLRLARLCTENLLKPDTRECAQLRQEVEENLNEVYRQISGVHKLQQTKFRQQPNAGKKQDHTIVDTVLMAPRSAKPALLKLTEKQVEQRAFHDLKVAPGYYTLTADQDARGMVEFQEGVELVDVRVPLFIRPEDDDEKQLLVEAIDVPAGTATLGRRLVNITIIKEQARDVVSFEQPEFSVSRGDQVARIPVIRRVLDGGKSQVSYRTQDGTAQGNRDYIPVEGELLFQPGEAWKELQVKLLELQEVDSLLRGRQVRRFHVQLSNPKFGAHLGQPHSTTIIIRDPDELDRSFTSQMLSSQPPPHGDLGA
Turning to B2, in assay [2], the binding result is on record as “binds”.

B3: GST-ITGB4 Fnll-1 and Fnll-2 fragment (1129-1426) (domain or fragment, UniProt P16144 1129-1426)
chain: APQNPNAKAAGSRKIHFNWLPPSGKPMGYRVKYWIQGDSESEAHLLDSKVPSVELTNLYPYCDYEMKVCAYGAQGEGPYSSLVSCRTHQEVPSEPGRLAFNVVSSTVTQLSWAEPAETNGEITAYEVCYGLVNDDNRPIGPMKKVLVDNPKNRMLLIENLRESQPYRYTVKARNGAGWGPEREAIINLATQPKRPMSIPIIPDIPIVDAQSGEDYDSFLMYSDDVLRSPSGSQRPSVSDDTGCGWKFEPLLGEELDLRRVTWRLPPELIPRLSASSGRSSDAEAPHGPPDDGGAGGKG
As for B3, the binding entry in assay [2] is “no binding”.

The values are drawn from PMC11145805.
